{
  "source": "the supplement of paper PMC8728848",
  "binders": {"B1": {"name": "MGL2 (Mus musculus), Q8JZN1 (protein)", "chain": "MTMRYENFQNLEREEKNQEMRNGDKKGGMESPKFALIPSQSFLWRILSWTHLLLFSLGLSLLLLVVISVIGSQNSQLRRDLGTLRAILDNTTSKIKAEFQSLDSRADNFEKGISSLKVDVEDHRQELQAGRDLSQKVTSLESTLEKREQALKTDLSDLTDHVQQLETDLKALTCQLANLKNNGSEVACCPLHWTEHEGSCYWFSESEKSWPEADKYCRLENSHLVVVNSLEEQNFLQNRLANVLSWMGLTDQNGPWRWVDGTDFDKGFKNWRPLQPDNWHGHMLGGGEDCAHFSYDGRWNDDVCQRHYHWICETELGKASSAHSPQLIASVP"}},
  "test_in_all_cases": "glycan array binding signal (z-score within array); higher = stronger binding",
  "settings_in_all_cases": "glycan notation: IUPAC condensed, linker removed",
  "key": {"[1]": {"target": "Fuc(a1-2)Gal(b1-4)[Fuc(a1-3)]GlcNAc", "procedure,_shortened": "(§1)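 Glycan array data were curated from 3228 arrays in the Consortium for Functional Glycomics database and kept only where the protein sequence was available. Glycan names were converted to IUPAC-condensed notation, and columns mapping to the same glycan were averaged. The binding signal is a within-array Z-score, averaged across arrays of the same protein sequence at different concentrations or buffers and across linkers. Negative Z-scores can be read as non-binding.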"}, "[2]": {"target": "Fuc(a1-2)Gal(b1-4)[Fuc(a1-3)]GlcNAc(b1-2)Man(a1-3)[Fuc(a1-2)Gal(b1-4)[Fuc(a1-3)]GlcNAc(b1-2)Man(a1-6)]Man(b1-4)GlcNAc(b1-4)[Fuc(a1-6)]GlcNAc", "procedure,_shortened": "as §1"}, "[3]": {"target": "Fuc(a1-2)Gal(b1-4)[Fuc(a1-3)]GlcNAc(b1-2)[Fuc(a1-2)Gal(b1-4)[Fuc(a1-3)]GlcNAc(b1-4)]Man(a1-3)[Fuc(a1-2)Gal(b1-4)[Fuc(a1-3)]GlcNAc(b1-2)Man(a1-6)]Man(b1-4)GlcNAc(b1-4)GlcNAc", "procedure,_shortened": "as §1"}, "[4]": {"target": "Fuc(a1-2)Gal(b1-4)[Fuc(a1-3)]GlcNAc(b1-3)Gal(b1-4)[Fuc(a1-3)]GlcNAc", "procedure,_shortened": "as §1"}, "[5]": {"target": "Fuc(a1-2)Gal(b1-4)[Fuc(a1-3)]GlcNAc(b1-3)Gal(b1-4)[Fuc(a1-3)]GlcNAc(b1-3)Gal(b1-4)[Fuc(a1-3)]GlcNAc", "procedure,_shortened": "as §1"}, "[6]": {"target": "Fuc(a1-2)Gal(b1-4)[Fuc(a1-3)]GlcNAc(b1-3)GalNAc", "procedure,_shortened": "as §1"}, "[7]": {"target": "Fuc(a1-2)Gal(b1-4)[Fuc(a1-3)]GlcNAc(b1-3)[Neu5Ac(a2-6)Gal(b1-4)GlcNAc(b1-6)]Gal(b1-4)Glc", "procedure,_shortened": "as §1"}, "[8]": {"target": "Fuc(a1-2)Gal3S(b1-4)GlcNAc", "procedure,_shortened": "as §1"}, "[9]": {"target": "Fuc(a1-2)Gal6S(b1-3)GlcNAc", "procedure,_shortened": "as §1"}, "[10]": {"target": "Fuc(a1-2)Gal6S(b1-3)GlcNAc6S", "procedure,_shortened": "as §1"}, "[11]": {"target": "Fuc(a1-2)Gal6S(b1-4)Glc", "procedure,_shortened": "as §1"}, "[12]": {"target": "Fuc(a1-2)Gal6S(b1-4)Glc6S", "procedure,_shortened": "as §1"}, "[13]": {"target": "Fuc(a1-2)[Gal(a1-3)]Gal", "procedure,_shortened": "as §1"}, "[14]": {"target": "Fuc(a1-2)[Gal(a1-3)]Gal(b1-3)GalNAc", "procedure,_shortened": "as §1"}, "[15]": {"target": "Fuc(a1-2)[Gal(a1-3)]Gal(b1-3)GalNAc(b1-3)Gal(a1-4)Gal(b1-4)Glc", "procedure,_shortened": "as §1"}, "[16]": {"target": "Fuc(a1-2)[Gal(a1-3)]Gal(b1-3)GlcNAc", "procedure,_shortened": "as §1"}, "[17]": {"target": "Fuc(a1-2)[Gal(a1-3)]Gal(b1-3)GlcNAc(b1-2)Man(a1-3)[Fuc(a1-2)[Gal(a1-3)]Gal(b1-3)GlcNAc(b1-2)Man(a1-6)]Man(b1-4)GlcNAc(b1-4)GlcNAc", "procedure,_shortened": "as §1"}, "[18]": {"target": "Fuc(a1-2)[Gal(a1-3)]Gal(b1-3)GlcNAc(b1-2)Man(a1-3)[Fuc(a1-2)[Gal(a1-3)]Gal(b1-3)GlcNAc(b1-2)Man(a1-6)]Man(b1-4)GlcNAc(b1-4)[Fuc(a1-6)]GlcNAc", "procedure,_shortened": "as §1"}, "[19]": {"target": "Fuc(a1-2)[Gal(a1-3)]Gal(b1-3)GlcNAc(b1-3)GalNAc", "procedure,_shortened": "as §1"}, "[20]": {"target": "Fuc(a1-2)[Gal(a1-3)]Gal(b1-3)GlcNAc(b1-6)GalNAc", "procedure,_shortened": "as §1"}, "[21]": {"target": "Fuc(a1-2)[Gal(a1-3)]Gal(b1-4)Glc", "procedure,_shortened": "as §1"}, "[22]": {"target": "Fuc(a1-2)[Gal(a1-3)]Gal(b1-4)GlcNAc", "procedure,_shortened": "as §1"}, "[23]": {"target": "Fuc(a1-2)[Gal(a1-3)]Gal(b1-4)GlcNAc(b1-2)Man", "procedure,_shortened": "as §1"}, "[24]": {"target": "Fuc(a1-2)[Gal(a1-3)]Gal(b1-4)GlcNAc(b1-2)Man(a1-3)[Fuc(a1-2)[Gal(a1-3)]Gal(b1-4)GlcNAc(b1-2)Man(a1-6)]Man(b1-4)GlcNAc(b1-4)GlcNAc", "procedure,_shortened": "as §1"}, "[25]": {"target": "Fuc(a1-2)[Gal(a1-3)]Gal(b1-4)GlcNAc(b1-2)Man(a1-3)[Fuc(a1-2)[Gal(a1-3)]Gal(b1-4)GlcNAc(b1-2)Man(a1-6)]Man(b1-4)GlcNAc(b1-4)[Fuc(a1-6)]GlcNAc", "procedure,_shortened": "as §1"}, "[26]": {"target": "Fuc(a1-2)[Gal(a1-3)]Gal(b1-4)GlcNAc(b1-3)GalNAc", "procedure,_shortened": "as §1"}, "[27]": {"target": "Fuc(a1-2)[Gal(a1-3)]Gal(b1-4)GlcNAc(b1-3)[Fuc(a1-2)[Gal(a1-3)]Gal(b1-4)GlcNAc(b1-6)]GalNAc", "procedure,_shortened": "as §1"}, "[28]": {"target": "Fuc(a1-2)[Gal(a1-3)]Gal(b1-4)GlcNAc(b1-6)GalNAc", "procedure,_shortened": "as §1"}, "[29]": {"target": "Fuc(a1-2)[Gal(a1-3)]Gal(b1-4)[Fuc(a1-3)]Glc", "procedure,_shortened": "as §1"}, "[30]": {"target": "Fuc(a1-2)[Gal(a1-3)]Gal(b1-4)[Fuc(a1-3)]GlcNAc", "procedure,_shortened": "as §1"}, "[31]": {"target": "Fuc(a1-2)[Gal(a1-3)]Gal(b1-4)[Fuc(a1-3)]GlcNAc(b1-3)GalNAc", "procedure,_shortened": "as §1"}, "[32]": {"target": "Fuc(a1-2)[Gal(a1-4)]Gal(b1-4)GlcNAc", "procedure,_shortened": "as §1"}, "[33]": {"target": "Fuc(a1-2)[GalNAc(a1-3)]Gal", "procedure,_shortened": "as §1"}, "[34]": {"target": "Fuc(a1-2)[GalNAc(a1-3)]Gal(b1-3)GalNAc(a1-3)[Fuc(a1-2)]Gal(b1-4)GlcNAc", "procedure,_shortened": "as §1"}, "[35]": {"target": "Fuc(a1-2)[GalNAc(a1-3)]Gal(b1-3)GalNAc(b1-3)Gal(a1-4)Gal(b1-4)Glc", "procedure,_shortened": "as §1"}, "[36]": {"target": "Fuc(a1-2)[GalNAc(a1-3)]Gal(b1-3)GlcNAc", "procedure,_shortened": "as §1"}, "[37]": {"target": "Fuc(a1-2)[GalNAc(a1-3)]Gal(b1-3)GlcNAc(b1-2)Man(a1-3)[Fuc(a1-2)[GalNAc(a1-3)]Gal(b1-3)GlcNAc(b1-2)Man(a1-6)]Man(b1-4)GlcNAc(b1-4)GlcNAc", "procedure,_shortened": "as §1"}, "[38]": {"target": "Fuc(a1-2)[GalNAc(a1-3)]Gal(b1-3)GlcNAc(b1-2)Man(a1-3)[Fuc(a1-2)[GalNAc(a1-3)]Gal(b1-3)GlcNAc(b1-2)Man(a1-6)]Man(b1-4)GlcNAc(b1-4)[Fuc(a1-6)]GlcNAc", "procedure,_shortened": "as §1"}},
  "note": "The list shows a part of the results.",
  "data": [
    {"binder": "B1", "values": [
      {"measurement": "glycan array binding signal (z-score)", "setting": "[1]", "value": -0.225},
      {"measurement": "glycan array binding signal (z-score)", "setting": "[2]", "value": 0.025},
      {"measurement": "glycan array binding signal (z-score)", "setting": "[3]", "value": -0.047},
      {"measurement": "glycan array binding signal (z-score)", "setting": "[4]", "value": -0.148},
      {"measurement": "glycan array binding signal (z-score)", "setting": "[5]", "value": -0.198},
      {"measurement": "glycan array binding signal (z-score)", "setting": "[6]", "value": -0.255},
      {"measurement": "glycan array binding signal (z-score)", "setting": "[7]", "value": -0.136},
      {"measurement": "glycan array binding signal (z-score)", "setting": "[8]", "value": -0.132},
      {"measurement": "glycan array binding signal (z-score)", "setting": "[9]", "value": -0.223},
      {"measurement": "glycan array binding signal (z-score)", "setting": "[10]", "value": 0.028},
      {"measurement": "glycan array binding signal (z-score)", "setting": "[11]", "value": -0.142},
      {"measurement": "glycan array binding signal (z-score)", "setting": "[12]", "value": -0.022},
      {"measurement": "glycan array binding signal (z-score)", "setting": "[13]", "value": -0.115},
      {"measurement": "glycan array binding signal (z-score)", "setting": "[14]", "value": -0.218},
      {"measurement": "glycan array binding signal (z-score)", "setting": "[15]", "value": 0.126},
      {"measurement": "glycan array binding signal (z-score)", "setting": "[16]", "value": -0.128},
      {"measurement": "glycan array binding signal (z-score)", "setting": "[17]", "value": -0.255},
      {"measurement": "glycan array binding signal (z-score)", "setting": "[18]", "value": -0.096},
      {"measurement": "glycan array binding signal (z-score)", "setting": "[19]", "value": -0.183},
      {"measurement": "glycan array binding signal (z-score)", "setting": "[20]", "value": 0.323},
      {"measurement": "glycan array binding signal (z-score)", "setting": "[21]", "value": -0.222},
      {"measurement": "glycan array binding signal (z-score)", "setting": "[22]", "value": -0.162},
      {"measurement": "glycan array binding signal (z-score)", "setting": "[23]", "value": -0.22},
      {"measurement": "glycan array binding signal (z-score)", "setting": "[24]", "value": -0.129},
      {"measurement": "glycan array binding signal (z-score)", "setting": "[25]", "value": -0.164},
      {"measurement": "glycan array binding signal (z-score)", "setting": "[26]", "value": -0.286},
      {"measurement": "glycan array binding signal (z-score)", "setting": "[27]", "value": -0.22},
      {"measurement": "glycan array binding signal (z-score)", "setting": "[28]", "value": -0.058},
      {"measurement": "glycan array binding signal (z-score)", "setting": "[29]", "value": -0.146},
      {"measurement": "glycan array binding signal (z-score)", "setting": "[30]", "value": -0.061},
      {"measurement": "glycan array binding signal (z-score)", "setting": "[31]", "value": -0.252},
      {"measurement": "glycan array binding signal (z-score)", "setting": "[32]", "value": -0.12},
      {"measurement": "glycan array binding signal (z-score)", "setting": "[33]", "value": -0.218},
      {"measurement": "glycan array binding signal (z-score)", "setting": "[34]", "value": -0.197},
      {"measurement": "glycan array binding signal (z-score)", "setting": "[35]", "value": -0.149},
      {"measurement": "glycan array binding signal (z-score)", "setting": "[36]", "value": -0.21},
      {"measurement": "glycan array binding signal (z-score)", "setting": "[37]", "value": -0.276},
      {"measurement": "glycan array binding signal (z-score)", "setting": "[38]", "value": -0.192}
    ]}
  ]
}
